In all, about 110,000 compounds were measured (“z-score”: median about -0.1, highest 2% from about 2 on). The list shows a part of the results. Calls of active or inactive are those of the source.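 Rule for the calls: active = z-score in the third read window above 3 or below -3; inactive = the rest.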 Residues, ends and D or L forms follow the SMILES beside them. *: point of attachment. Cbz = O=C(OCc1ccccc1)*

For this assay, the target named is Metabotropic glutamate receptor 8 (Rattus norvegicus) (UniProt P70579). The experiment in a line: rat mGluR8 modulators via GIRK flux, primary screen, cell-based, thallium flux, HTS (AID 488969). The following applies: HEK293 rat mGluR8, GIRK (G protein-gated inwardly rectifying potassium channel) thallium flux, FluoZin2; at 10 µM; stronger effect = higher value; submaximal glutamate (EC20) added with thallium.
Chain of UniProt P70579 (P70579 whole entry, looked up): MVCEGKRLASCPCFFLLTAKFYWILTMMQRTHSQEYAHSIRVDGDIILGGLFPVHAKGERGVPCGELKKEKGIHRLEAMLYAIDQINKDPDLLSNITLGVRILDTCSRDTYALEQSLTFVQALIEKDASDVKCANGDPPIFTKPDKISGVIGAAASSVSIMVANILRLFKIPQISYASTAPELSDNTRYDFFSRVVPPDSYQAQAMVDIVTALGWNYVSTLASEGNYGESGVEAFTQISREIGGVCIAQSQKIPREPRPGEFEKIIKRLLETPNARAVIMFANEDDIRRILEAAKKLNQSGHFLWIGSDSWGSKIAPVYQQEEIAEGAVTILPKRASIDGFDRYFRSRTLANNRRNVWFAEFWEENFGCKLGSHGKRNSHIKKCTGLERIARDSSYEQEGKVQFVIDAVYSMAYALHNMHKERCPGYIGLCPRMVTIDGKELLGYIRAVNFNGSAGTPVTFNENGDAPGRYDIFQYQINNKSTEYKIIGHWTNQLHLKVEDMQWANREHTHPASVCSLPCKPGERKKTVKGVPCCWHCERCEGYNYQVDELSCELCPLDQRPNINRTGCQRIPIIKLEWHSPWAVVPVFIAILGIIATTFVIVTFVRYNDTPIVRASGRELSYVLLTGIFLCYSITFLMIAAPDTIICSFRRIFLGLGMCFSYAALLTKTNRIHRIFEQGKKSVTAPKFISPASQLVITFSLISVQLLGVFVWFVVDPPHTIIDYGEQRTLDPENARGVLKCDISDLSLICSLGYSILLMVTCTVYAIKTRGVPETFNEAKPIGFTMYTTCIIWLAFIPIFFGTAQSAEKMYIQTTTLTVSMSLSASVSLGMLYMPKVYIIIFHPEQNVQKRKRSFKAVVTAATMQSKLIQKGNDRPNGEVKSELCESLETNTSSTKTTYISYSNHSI
Compound `CS(=O)(=O)N1N=C(c2ccco2)CC1c1ccc(Br)cc1` (stereo unspecified) showed a z-score of 1.13.

With `CCCCC(=O)Nc1ccc(C(=O)NNC(=O)c2ccco2)cc1`, the z-score is -1.24.

The compound `COCCOC(=O)C1=C(C)OC(N)=C(C#N)C1c1ccc2c(c1)OCO2` (stereo unspecified) came in with a z-score of -0.0588.

On to `O=C1CC(c2ccc(F)cc2)Cc2nc(NCc3ccco3)ncc21` (stereo unspecified), for which the z-score is -0.0576.

`CCCCn1c(O)c(C(CC)=Nc2ccc3c(c2)CCC3)c(=O)[nH]c1=O`: the z-score was -0.122.

Turning to `Cn1nnnc1SCCNCc1ccncc1`, the z-score is -0.142.

Compound `CCOC(=O)N1CCN(C(=O)CSCC(=O)Nc2nc(-c3ccc4c(c3)OCO4)cs2)CC1` yielded a z-score of -0.296.

In the case of `CCOc1ccccc1NC(=O)CN(c1ccc(C)cc1)S(=O)(=O)c1c(C)noc1C`, the z-score was determined as 0.061.

`Fc1ccc(NCc2ccccc2F)cc1Cl` had a z-score of 0.593.

For the compound `COc1cccc(-c2cc(C(=O)N3CCCCC3C)no2)c1` (stereo unspecified), the z-score worked out at 0.896.

Compound `CN(C)S(=O)(=O)n1cnc(-c2ccccc2)c1-c1ccccc1` yielded a z-score of -0.218.

Turning to `Cc1c(CCO)c(=O)[nH]n1C(=O)c1ccc(F)cc1`, the z-score is -0.112.

The compound `CCOc1ccc(C2=Nn3c(nnc3-c3ccc(OC)cc3)SC2)cc1` came in with a z-score of -0.0217.

In turn, `Cc1nc2cc(C(=O)OCC(=O)Nc3ccc(C#N)cc3)ccc2n1-c1ccccc1` had a z-score of -0.0383.

As to `Cc1c(O)ccc(C(=O)CN2C(=O)c3ccccc3C2=O)c1O`, the z-score was 0.0985.

`COc1cccc(C(=O)OCCN2CCCCC2)c1`: the z-score is -0.0542.

`COC(=O)c1sccc1NC(=S)N1CCCCC1` gave a z-score of 0.893.

The compound `Cc1onc(-c2ccccc2)c1C(=O)N/N=C/c1cccc(O)c1` gave a z-score of -0.0503.

The compound `O=C(NCCc1csc(-c2ccccc2)n1)c1cccs1` displayed a z-score of -0.44.

Take `CON(C)S(=O)(=O)c1ccc2c(c1)NC(=O)C1CCCN21` (stereo unspecified): the z-score is -0.981.

In turn, `CC(C)OCCCNS(=O)(=O)c1ccc2ccccc2c1` came in with a z-score of -0.521.

`O=C(CCSc1nc2ccccc2s1)N/N=C/c1c(O)ccc2ccccc12` had a z-score of -0.021.

In the case of `Cc1ccc(NC(=O)COC(=O)c2ccccc2Nc2ccccc2)cc1`, the z-score is -0.179.

As for `CCOC(=O)c1[nH]c2ccc(Br)cc2c1NC(=O)CNC`, the z-score came to 0.478.

Compound `CCCCn1c(O)c(C=NCCCN(C)C)c(=O)[nH]c1=O` yielded a z-score of 0.0547.

`Cc1ccc(C(=O)c2ccc([N+](=O)[O-])cc2)cc1` gave a z-score of 0.0886.

On to `O=C(C1CCCCN1S(=O)(=O)c1ccccc1)N1CCN(C(c2ccccc2)c2ccccc2)CC1` (stereo unspecified), for which the z-score is 0.368.

For `CN(C)Cc1cn(CCC(=O)O)c2ccccc12`, the z-score is -0.0882.

As to `Fc1ccc(C2CC(c3ccco3)n3ncnc3N2)cc1` (stereo unspecified), the z-score was found to be 0.253.

As for `COCC(C)n1c(C)cc(C(=O)Cn2c(=O)oc3ccccc32)c1C` (stereo unspecified), the z-score is -0.384.

The compound `COc1ccc(NC(=O)c2c(NC(=O)CNCc3ccco3)sc3c2CCC3)c(OC)c1` displayed a z-score of -0.075.

On to `COc1ccc(C2C(C(C)=O)=C(O)C(=O)N2CCc2ccccc2)c(OC)c1` (stereo unspecified), for which the z-score is -0.955.

On to `CCN(CC)S(=O)(=O)c1cccc(-c2nnc(SCc3nnc(-c4ccccc4)o3)n2C)c1`, for which the z-score is -0.425.

Turning to `CC(=O)c1c(C)[nH]c(C(=O)N2CCN(c3ncccn3)CC2)c1C`, the z-score was -0.0273.

`COCCOC(=O)C1=C(C)N=C2SCCC(=O)N2C1c1ccc(C(=O)OC)cc1` (stereo unspecified) had a z-score of -0.0728.

`COC(=O)C(NNc1ccc(F)cc1)(NC(=O)c1ccccc1)C(F)(F)F` (stereo unspecified): the z-score turned out to be 0.581.

`CCCOc1ccc(-c2nnc(-c3cccs3)o2)cc1`: the z-score is -0.02.

The compound `CSc1cc(-c2ccccc2)n(Cc2c(Cl)cccc2Cl)c(=O)c1C#N` returned a z-score of 0.169.

Compound `Cc1cc(C)c(NC(=O)CSc2nccn2C)c(C)c1` had a z-score of -0.238.

The compound `CCOC(=O)/C(C#N)=C\C1=C(N2CCCC2)CC(C)(C)OC1` gave a z-score of 0.457.

In turn, `CCN(Cc1ccccc1)c1ccc(/C=N/N2CCOCC2)cc1` registered a z-score of -0.575.

Compound `COC(=O)CCC(NC(=O)OCc1ccccc1)C(=O)NC(CC(C)C)C(=O)OC` (stereo unspecified) (Cbz-Glu(OMe)-Leu-OMe; configuration not given here) gave a z-score of -0.486.

The compound `CCOc1ccc(NC(=O)CCN2CCN(S(=O)(=O)c3ccc(OC)cc3)CC2)cc1` had a z-score of -0.593.

Turning to `COC(=O)c1c(CSc2cccc(C)c2)noc1C(=O)NCc1ccco1`, the z-score was -0.487.

`CC(C)CCn1c(N2CCC(C(N)=O)CC2)nc2c1c(=O)[nH]c(=O)n2C`: the z-score amounted to 0.118.

`CCCCOC(=O)C1C2C=CC3(CN(CCc4ccccc4)C(=O)C13)O2` (stereo unspecified) displayed a z-score of -0.421.

On to `O=C(NCCCn1ccnc1)c1noc2c1CCc1ccccc1-2`, for which the z-score was -1.12.

In the case of `C=CCN(CC=C)S(=O)(=O)c1ccc(F)cc1`, the z-score was -0.198.

Take `O=S(=O)(c1ccc(OCC(O)CN2CCCCC2)cc1)N1CCOCC1` (stereo unspecified): the z-score turned out to be 0.352.

In turn, `CC(C)Cc1cc(C(=O)O)c2ccccc2n1` returned a z-score of -0.114.

On to `Cc1cc(N2CCN(Cc3ccc4c(c3)OCO4)CC2)n2ncnc2n1`, for which the z-score is -0.374.

Turning to `C=CCN(CC=C)C(=S)NC(=O)c1ccc([N+](=O)[O-])cc1`, the z-score is active: 4.84.

Compound `COC(=O)Cc1cc(=O)n2[nH]c(SC)nc2n1` registered a z-score of 0.0918.

In turn, `COc1ccc(S(=O)(=O)N(C)c2ccc(C(=O)NCCC(C)C)cc2)cc1` gave a z-score of -0.245.

The compound `Cc1snc(SCC(=O)N/N=C(\N)COc2cccc(C(F)(F)F)c2)c1C#N` showed a z-score of -0.185.

`O=C1CC(C2CCCO2)C(=O)N1Cc1ccccc1` (stereo unspecified) had a z-score of 0.636.

In turn, `O=[N+]([O-])c1ccc(N/N=C/c2ccc[nH]2)cc1` had a z-score of -0.29.

As for `CC(C)n1c(-c2ccc(N(C)C)cc2)nc2ccccc21`, the z-score was 0.782.

The compound `O=C(COC(=O)c1c2ccccc2cc2ccccc12)Nc1ncc(C(F)(F)F)cc1Cl` had a z-score of -0.128.

As for `CCc1nccn1C(=O)c1cnn2c(C(F)F)cc(-c3ccccc3)nc12`, the z-score is -0.604.

`CC(=O)c1cccc(N(C(=O)c2ccccn2)C(C(=O)NC2CCCCC2)c2cccs2)c1` (stereo unspecified) displayed a z-score of 1.44.

On to `O=C(/C=C/c1cccc(Cl)c1)Nc1ccncc1`, for which the z-score is -0.69.

In turn, `O=C(NCc1ccco1)c1ccc(=O)[nH]n1` gave a z-score of -0.537.

Regarding `COC(=O)c1ccccc1NC(=O)C(C)Oc1ccccc1` (stereo unspecified), the z-score was -0.764.

Compound `CC1CCN(c2ccc(NC(=S)NC(=O)c3ccc(-c4cccc([N+](=O)[O-])c4)o3)cc2)CC1` came in with a z-score of -0.0494.

As to `O=C(Cc1ccc(Cl)cc1)NNS(=O)(=O)c1ccc([N+](=O)[O-])cc1`, the z-score is -0.0889.

As for `COc1ccc(NC(=S)N(CCN(C)C)C(C)c2ccco2)cc1Cl` (stereo unspecified), the z-score is -0.249.

With `CCNC(=S)NS(=O)(=O)c1ccc(CC)cc1`, the z-score was -0.175.

Consider `O=C(COc1ccc(C(=O)Nc2ccc(Cl)cc2)cc1)NCc1ccccc1`, for which the z-score was -0.0569.

In turn, `COc1ccc(CCC(=O)Nc2cc(Cl)ccc2N2CCN(C)CC2)cc1` had a z-score of 0.512.

In turn, `C=CCc1cccc(CNc2nc3ccccc3n2CCC)c1O` came in with a z-score of -0.0628.

`COc1ccccc1/C=N/NC(=O)CN(C1=NS(=O)(=O)c2ccccc21)c1ccccc1` registered a z-score of 0.0784.

`Cc1c(Cl)c([N+](=O)[O-])nn1CCCC(=O)N1CCN(c2ccccc2)CC1` came in with a z-score of 0.463.

In turn, `COc1ccc(N2C(=O)c3ccccc3NC2c2ccc(OC)c(COc3ccccn3)c2)cc1` (stereo unspecified) showed a z-score of -0.453.

Compound `COc1ccc(CN(CCCN2CCOCC2)S(=O)(=O)N(C)C)cc1OC` had a z-score of -0.34.

Consider `O=C(CCSc1ccccc1)Nc1ccccc1C(=O)N1CCCC1`, for which the z-score was -0.147.

Take `CCCC(=O)NCCCCNC(=O)CCC`: the z-score is -0.153.

The compound `CO/N=C(\CS(=O)(=O)Cc1ccc(OC)cc1)c1ccc(Cl)cc1` showed a z-score of -0.149.

Compound `CCC(c1nnnn1CCOC)N1CCN(c2cccc(C(F)(F)F)c2)CC1` (stereo unspecified) had a z-score of 0.167.

Consider `Cc1cc(Br)ccc1OCCCCN1CCC(C)CC1`, for which the z-score is 0.0252.

In turn, `Cc1[nH]c2ccccc2c1C(=O)COC(=O)CCS(=O)(=O)c1ccccc1Cl` registered a z-score of -1.04.

As for `O=C(Nc1ccccc1)Nc1ccc2snnc2c1`, the z-score was -0.373.

With `Cc1ccc(S(=O)(=O)N2CCOCC2)cc1NC(=O)COC(=O)CCC(=O)c1cccs1`, the z-score worked out at 0.848.

Compound `COc1ccc(OCC(=O)NNC(=O)c2ccccn2)cc1` had a z-score of -0.0312.

Compound `CCOc1ccc(NC(=O)C2(c3ccc(OC)c(OC)c3)CCCC2)cc1` yielded a z-score of -0.247.

Turning to `CCOC(=O)c1ccc(N/C=C2\CCCCC2=O)cc1`, the z-score was -0.151.

Regarding `Cc1ccc(-c2nc3ncccn3c2Nc2ccc3c(c2)OCCO3)o1`, the z-score is -0.196.

For `Cc1ccc(NC(=O)CN(C)S(=O)(=O)c2cccc3cccnc23)cc1`, the z-score is -0.147.

The compound `COC(=O)c1ccc(/C=N\n2c(C)nnc2C)cc1` returned a z-score of -0.444.

`CCN(c1ccccc1)S(=O)(=O)c1ccc(NC(=S)NC(=O)c2cccs2)cc1` yielded a z-score of 2.75.

The compound `CC(C)CCOCC(=O)Oc1ccccc1C(=O)O` yielded a z-score of -0.136.

`O=C(Nc1cccc(F)c1)OC(CN1CCCCC1)C(F)(F)F` (stereo unspecified) gave a z-score of -0.0064.

For the compound `CSC(=NS(=O)(=O)c1ccccc1)SC`, the z-score is -0.11.

The compound `COc1ccc(OC)c(N(CC(=O)N2CCC(C)CC2)S(=O)(=O)c2ccccc2)c1` had a z-score of -0.28.

Turning to `CC(C)c1nc2sc3c(=O)[nH]c(=S)[nH]c3c2c2c1CCC2`, the z-score is -0.834.

As to `CC(OC(=O)C1CC=CCC1C(N)=O)C(Cl)=C(Cl)Cl` (stereo unspecified), the z-score was -0.252.

`CCN(CC)S(=O)(=O)c1cc([N+](=O)[O-])ccc1NNC(=O)Nc1ccccc1OC`: the z-score came to 0.0744.

For `COC(=O)c1ccc(NC(=O)C(=O)N2CCN(C(=S)Nc3ccc(C)cc3)CC2)cc1`, the z-score is -0.0799.

For the compound `COc1ccc(S(=O)(=O)N(C)c2ccc(C(N)=O)cc2)cc1`, the z-score is -0.471.

In turn, `COC(=O)c1cc(NC(=O)CCc2c(C)nc3ncnn3c2C)cc(C(=O)OC)c1` displayed a z-score of -0.436.

Turning to `CCC(CC)C(=O)Nc1cc(=O)n(C)c(=O)n1C`, the z-score is -0.0377.

With `COc1ccc(Nc2nnc(-c3ccccc3)c3ccccc23)cc1C(=O)N1CCCCC1`, the z-score is -0.462.

In the case of `O=C(Nc1cc2c(ccc3ccccc32)oc1=O)C1CCCCC1`, the z-score is -0.146.

In turn, `Cc1c(C(=O)NC(C)C)sc2ncn(CC(=O)N3CCC(C)CC3)c(=O)c12` yielded a z-score of -0.00251.

Turning to `CCn1c(SCC(=O)N2CCC(C(N)=O)(N3CCCCC3)CC2)nnc1-c1ccccc1`, the z-score turned out to be 2.65.

The compound `Cc1ccc(S(=O)(=O)c2nc(N3CCOCC3)sc2Cl)cc1` registered a z-score of -1.02.

For `Cc1cnnc2c1-c1no[n+]([O-])c1CC2`, the z-score came to 0.0628.

For `COc1ccc(Cl)cc1NC(=O)C(C)Sc1n[nH]c(N)n1` (stereo unspecified), the z-score was -1.67.

For the compound `O=S(=O)(N/N=C/c1ccc2c(c1)OCCO2)c1ccccc1`, the z-score is -0.207.

Turning to `CCc1nnc(NC(=O)C(C)C)s1`, the z-score is -0.12.

`c1cc(CNCCCN2CCOCC2)ccn1` gave a z-score of -0.0963.

The values are drawn from PubChem BioAssay AID488969 (Vanderbilt High Throughput Screening Facility, 2010).
